Data from PubChem BioAssay (NCI).
Several values for one entry are separate records, joined by “and”; a condition that tells them apart may be missing. Equal values may be shown once.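 Results reflect a 48-hour exposure of cells in 96-well plates to compound at five concentrations. Abbreviation: GI50, concentration required for 50% inhibition of growth. At the TGI there is no net growth.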

The compounds below were run on NCI-H322M lung (assay: growth of human tumour cells (NCI), 48 h).
`COc1ccc([C@H]2c3[nH]c4ccccc4c3C[C@H]3C(=O)N(CCCCCCC(=O)NO)CC(=O)N23)cc1` gave a GI50 of 3.16 µM and a TGI greater than 33.3 µM.
With `O=C(Nc1nnc(-c2ccccc2)o1)C(SC(=S)N1CCCC1)c1ccccc1` (configuration not stated) the TGI was 85.6 µM.
Work on `CC(C)OC(=O)c1cc(NC(=S)OC(C)C)ccc1Cl` yielded a TGI greater than 58.2 µM.
In the case of `COc1cc(C(=O)/C=C/c2c(C)n([O-])c3ccc(Cl)cc3[n+]2=O)cc(OC)c1OC`, the GI50 is reported as 25.9 µM and the TGI is reported as greater than 100 µM.
`COC(=O)c1c2c(cc3c1CC1(Cc4cc5c(cc4C1)CCCC5)C3)CCCC2` was tested, and the TGI was greater than 100 µM.
For `CC1=NN(c2cc(Cl)c(S(=O)(=O)O)cc2Cl)C2(C1)C(Cl)C(=O)N2c1nc2ccccc2s1` (configuration not stated), the TGI was greater than 100 µM.
In the case of `Cc1cc(=O)[nH]c2c1C(=O)c1c(C)cc(=O)n(C)c1C2=O`, the TGI is reported as 0.0294 µM.
For `NCC[PH+](c1ccccc1)c1ccccc1.NCC[PH+](c1ccccc1)c1ccccc1.[Cl-].[Pt+4]`, the GI50 was greater than 100 µM and the TGI was greater than 100 µM.
In the case of `COc1ccc(-c2nc3sccn3c2/C=C/C(=O)c2cc(OC)c(OC)c(OC)c2)cc1`, the GI50 is reported as 4.38 µM and the TGI is reported as greater than 100 µM.
For `COc1ccc(N=C2C(=O)Nc3ccc(Br)cc32)cc1`, the TGI was 86.1 µM.
With `Clc1cc(Cl)cc(Nc2ccc3c(OCCCN4CCOCC4)cccc3n2)c1` the GI50 was 2.51 µM and the TGI was 7.51 µM.
In the case of `CC(=O)Nc1ccc2c(c1)[nH]c(=O)c1cc(Cl)ccc12`, the TGI is reported as greater than 100 µM.
For `COC1=C(OC)C(=O)C(Cc2c(-c3ccccc3)nc3sc(Cl)cn23)=C(C)C1=O`, the TGI was 56.9 µM.
For `CN(C)CCC(/C=C/c1ccccc1)=N\Nc1c(F)c(F)c(F)c(F)c1F`, the TGI was greater than 100 µM.
`COC(=O)c1sc2c(Cl)c(Cl)sc2c1Cl` gave a TGI greater than 100 µM.
Work on `COc1ccc(C=C2C(C)=NN(c3cccc(Cl)c3)C23C(Cl)C(=O)N3c2nc3ccccc3s2)cc1` (configuration not stated) yielded a TGI greater than 100 µM.
`O=C(O)C1C2OC(C(Br)C2Br)C1C(=O)O` (configuration not stated) was tested, and the TGI was greater than 100 µM.
`NC(=O)C1C(=O)Oc2cccnc21` (configuration not stated) was tested, and the TGI was greater than 100 µM.
Work on `COc1cc2c(c(OC)c1OC)-c1ccc(SC)c(=O)cc1C(CC(=O)Oc1ccccc1F)C2` (configuration not stated) yielded a TGI greater than 7.5 µM.
In the case of `Cn1c(COC(=O)NC2CCCCC2)c(COC(=O)NC2CCCCC2)c2ccc3ccccc3c21`, the TGI is reported as greater than 100 µM.
With `C=C(CCC(=O)N(CCc1c[nH]c2ccccc12)C(=O)c1ccccc1CSCC)C(=O)OC` the TGI was greater than 100 µM.
`Nc1ncnc2c1ncn2CCCNO` gave a TGI greater than 100 µM.
In the case of `COc1cc2c(cc1OC)C(C1CC1)ON(C)CC2` (configuration not stated), the TGI is reported as greater than 100 µM.
`O=C(CC/C(CC(=O)c1ccc(Cl)cc1)=N\O)Nc1cccc(Cl)c1` showed a TGI greater than 100 µM.
Work on `COC(=O)[C@]1(c2cc3ccccc3[nH]2)CC2CNC1C1OC(C)(C)OC21` (some centres not stated) yielded a TGI greater than 100 µM.
With `O=C(Cc1csc2nc(-c3ccc(Br)cc3)cn12)N/N=C/c1ccccc1O` the GI50 was 2.14 µM and the TGI was 10.7 µM.
Compound `CCOC(=O)CC1C(C(=O)OCC)=Cn2c([nH]c3cccc4cccc2c43)=C1C(=O)OCC` (configuration not stated) has a TGI greater than 100 µM.
With `Cc1cc(N(CCC#N)CCC#N)ccc1/C=C1N=C(/C=C\c2ccccc2)N(c2ccc(C(=O)O)cc2)C\1=O` the TGI was greater than 100 µM.
`CC(=O)N1CN2C(=O)CCC2c2cc(C)ccc21` (configuration not stated) showed a TGI greater than 100 µM.
`Cc1ccc(-n2cc(/C(N)=N/O)c3ccccc3c2=O)cc1` was tested, and the TGI was greater than 100 µM.
`CC(C)(C)c1cnc(CSc2cnc(NC(=O)C3CCNCC3)s2)o1` was tested, and the GI50 was 0.236 µM and 0.24 µM and the TGI was greater than 10 µM.
Work on `COC(=O)c1sc(=S)c2sc(C(=O)OC)c(C(=O)OC)c2c1C(=O)OC` yielded a GI50 of 27.8 µM and a TGI greater than 100 µM.
In the case of `c1ccc2[nH]c(-c3cscn3)nc2c1`, the TGI is reported as greater than 100 µM.
Compound `COc1ccc(/C=C2\N=C3N(Cc4ccccc4)C=C(N)N3C2=O)cc1` has a TGI greater than 100 µM.
In the case of `Oc1ccccc1/C=N/c1nc(-c2ccccc2)cs1`, the GI50 is reported as greater than 100 µM and the TGI is reported as greater than 100 µM.
Work on `Cc1ccccc1NC(=O)C(=O)CC(=O)c1sc(-n2nc(-c3ccccc3)cc2-c2ccccc2)nc1C` yielded a TGI greater than 100 µM.
With `CCOc1ccc(Nc2nc(N)nc(N)c2N=O)cc1` the TGI was greater than 100 µM.
Compound `Cc1cn([C@H]2CN(O)C[C@@H](CO)O2)c(=O)[nH]c1=O` has a TGI greater than 100 µM.
In the case of `CN=C1C=C(/N=C2/C=C(N/C(=C\C#N)C(C)(C)O)OC2(C)C)OC1(C)C`, the TGI is reported as greater than 100 µM.
For `COc1ccccc1-c1cc(=O)c2cccnc2[nH]1`, the TGI was greater than 100 µM.
In the case of `CCOC(=O)c1c(-c2ccc(Cl)cc2)c(C#N)c(=S)n(C2OC(COC(C)=O)C(OC(C)=O)C(OC(C)=O)C2OC(C)=O)c1C` (configuration not stated), the TGI is reported as greater than 100 µM.
`CCn1c(-c2cc3ccccc3cc2OC(C)=O)n[nH]c1=S` showed a TGI greater than 100 µM.
With `COc1cc2ccc(C(C)NCC#N)cc2cc1OC` (configuration not stated) the TGI was greater than 100 µM.
For `COc1ccc(C2C(C(=O)O)=C(COC(C)=O)Oc3cc4c(cc32)OCO4)c(OC)c1` (configuration not stated), the TGI was greater than 100 µM.
With `CN(C)c1ccc(/C=C2\N=C(c3ccccc3)N(c3nc4ccc(Sc5ccccc5)cc4[nH]3)C2=O)cc1` the TGI was greater than 100 µM.
For `Fc1nc(Sc2ncnc3nc[nH]c23)nc(-c2c3ccccc3c3sc4ccccc4n23)n1`, the TGI was greater than 100 µM.
`C[N+](C)([O-])C12CC3CC(CC(C3)C1)C2` was tested, and the TGI was greater than 100 µM.
`Fc1cccc(C2ON=C(c3ccccc3)N2C23CC4CC(CC(C4)C2)C3)c1` (configuration not stated) was tested, and the TGI was greater than 10 µM.
Work on `Cc1c(-c2ccccc2)oc(=O)c2ccccc12` yielded a TGI of 51.2 µM.
`COc1cc(/C=C2\C(=O)N(c3ccc(Cl)cc3)C(c3ccccc3)S2(=O)=O)cc(OC)c1OC` (configuration not stated) was tested, and the TGI was greater than 100 µM.
`Clc1ccc(-c2nn3c(COc4ccc(OCc5nnc6sc(-c7ccc(Cl)cc7)nn56)c(Cl)c4)nnc3s2)cc1` showed a TGI greater than 100 µM.
`CN(CC(=O)O)c1ncc2c(n1)-c1ccccc1CC2` showed a TGI greater than 100 µM.
Compound `CC1(c2ccc(Cl)cc2)c2ccccc2C(=O)N1CCCN1C(=O)c2ccccc2C1=O` (configuration not stated) has a TGI greater than 100 µM.
`CC[C@]1(O)C[C@@H]2CN(CCc3c([nH]c4ccccc34)[C@@](C(=O)OC)(c3cc4c(cc3OC)N(C)[C@H]3[C@@](O)(C(=O)OC)[C@H](OC(=O)CCCBr)[C@]5(CC)C=CCN6CC[C@]43[C@@H]65)C2)C1` showed a GI50 of less than 0.0221 µM and a TGI greater than 86.8 µM.
`Nc1c(-c2ccccc2)c2ccc([N+](=O)[O-])cc2c(=O)n1-c1cccc(C(=O)O)c1` showed a TGI greater than 100 µM.
With `COc1cc2ccc(CC(=O)O)cc2cc1OC` the TGI was greater than 100 µM.
In the case of `COc1cc2c(cc1OCCN1CCN(CCOc3cc4c(cc3OC)C(=O)N3CCC[C@H]3C=N4)CC1)N=C[C@@H]1CCCN1C2=O`, the TGI is reported as greater than 100 µM.
`C=C(c1ccc(C(=O)NCCCn2ccnc2)cc1)c1cc2c(cc1C)C(C)(C)CCC2(C)C` gave a GI50 of 8.47 µM and a TGI greater than 66 µM.
Compound `NCC1OC(OC2C(N)CC(N)C(O)C2OC2OC(CO)C(O)C2O)C(N)C(O)C1O` (configuration not stated) has a TGI greater than 100 µM.
Compound `COC(=O)C1C(=O)NC2(C)CC1c1ccccc1O2` (configuration not stated) has a TGI greater than 100 µM.
In the case of `CCCC/C=C1/CCC(CN(C)C)C1=O` (configuration not stated), the TGI is reported as 19.1 µM.
`N#CC(c1cc(Cl)ncn1)c1nc2cc(C(F)(F)F)ccc2s1` (configuration not stated) gave a TGI of 20.1 µM.
`Cc1cc(C)n(C(=CC(=O)C(Cl)Cl)n2nc(C)cc2C)n1` gave a TGI of 28 µM.
For `Cc1cc2nc3c(C(OC4OC(CO)C(O)C(O)C4O)C(O)CO)nn(-c4ccc(F)cc4)c3nc2cc1C` (configuration not stated), the TGI was greater than 100 µM.
Compound `O=C(Cn1ccnc1[N+](=O)[O-])NCc1ccc(F)cc1` has a TGI greater than 100 µM.
With `Nc1nc2c(ncn2C2OC(CO)C(O)C2O)c(=O)[nH]1` (configuration not stated) the GI50 was greater than 100 µM and the TGI was > 100 µM and 235 µM.
Work on `CCOC(=O)CCC(NC(=O)c1ccc(NCc2ccc3nc(OC)c(OC)nc3c2)c2ccccc12)C(=O)OCC` (configuration not stated) yielded a TGI greater than 100 µM.
For `COc1ccc2cc1Oc1ccc(cc1)CC1c3c(cc(OC)c4c3Oc3cc5c(cc3O4)CCNC5C2)CCN1C` (configuration not stated), the GI50 was 1.54 µM and the TGI was 3.73 µM and 2.88 µM.
`Nc1c([N+](=O)[O-])ncn1C1OC(CO)C(O)C1O` (configuration not stated) gave a GI50 greater than 100 µM and a TGI greater than 100 µM.
Work on `CCCCCCC1CCCCN1C(c1ccccc1)C(O)c1ccccc1` (configuration not stated) yielded a GI50 of 14.2 µM and a TGI of 29.2 µM.
Compound `C=C(/C=C/C=C(\CO)CCC=C(C)C)[C@H]1CCC2([C@H](CCCO)/C(=C(/C)C=O)CC[C@]2(C)O)[C@H]1O` (some centres not stated) has a TGI greater than 100 µM.
With `CCOC(=O)c1cnc2c(ccc3ncccc32)c1OCC` the TGI was greater than 100 µM.
With `COc1ccc(/C(C#N)=C2/O/C(=N/N)C(c3ccc(OC)c(OC)c3)C2=O)cc1OC` (configuration not stated) the TGI was greater than 100 µM.
Compound `COc1cc([N+](=O)[O-])c(S(=O)(=O)O)cc1-[n+]1nc(C(=O)Nc2ccccc2)nn1-c1ccc([N+](=O)[O-])c(S(=O)(=O)[O-])c1` has a TGI greater than 100 µM.
In the case of `c1csc(-c2cc(-c3ccsc3)cs2)c1`, the TGI is reported as greater than 100 µM.
With `O=C(CCCCCCCCC(=O)N1C(=O)CC(=O)N(c2ccc(Cl)cc2)C1=S)N1C(=O)CC(=O)N(c2ccc(Cl)cc2)C1=S` the TGI was greater than 100 µM.
For `COc1cc2c(cc1OC)C(Sc1ccc(Cl)cc1)c1c(nc(N)c(C#N)c1N)O2` (configuration not stated), the GI50 was 1.52 µM and the TGI was 2.89 µM.
Compound `CN(Cc1ccccc1)C(=S)S` has a TGI greater than 100 µM.
With `CC1(O)CC2C(CC1SCc1ccccc1)C2(C)C` (configuration not stated) the GI50 was 40.8 µM and 17.3 µM and the TGI was > 100 µM and 31.5 µM.
In the case of `CCCCCCCC(=O)OC[n+]1cccc(-c2c(COC(=O)NC(C)C)c(COC(=O)NC(C)C)c3n2CCC3)c1`, the TGI is reported as greater than 100 µM.
`NC(=O)N1N=C2c3ccccc3OC[C@H]2[C@@H]1c1ccccc1` gave a TGI greater than 100 µM.
For `CC(=O)O[C@H]1C(=O)[C@@]2(C)C([C@H](OC(=O)c3ccccc3)[C@]3(O)C[C@H](OC(=O)[C@H](O)[C@@H](NC(=O)c4ccc(Cl)cc4)c4ccccc4)C(C)=C1C3(C)C)C1(OC(C)=O)CO[C@@H]1C[C@@H]2O` (some centres not stated), the GI50 was 0.0109 µM and the TGI was 25 µM and 17.5 µM.
In the case of `CC(=O)OCCc1cc2ccccc2oc1=O`, the TGI is reported as greater than 100 µM.
In the case of `COc1cc(C(=O)Nc2ccc(-c3nc4ccccc4[nH]3)cc2)cc(OC)c1OC`, the GI50 is reported as 11.1 µM and the TGI is reported as 27.1 µM.
`N#CC(C#N)=C/C=C/c1ccccc1[N+](=O)[O-]` showed a TGI greater than 10 µM.
For `CC(C)C(Nc1c2ccccc2[n+](C)c2ccccc12)C(=O)O` (configuration not stated), the TGI was greater than 100 µM.
With `O=C(NCCNC1=CC(=O)c2nc3ccccc3c3ccnc1c23)c1cnccn1` the GI50 was 27.9 µM and the TGI was greater than 100 µM.
